Measured values taken from patent CN115028722A (BIOCELLS BEIJING BIOTECH CO LTD, dated 2022).

Target: T1, hTSLPR/hIL-7Rα-293T/17细胞 (293T/17 cells stably expressing human TSLPR and human IL-7Rα) (human, UniProt Q9HC73 23-371; P16871 21-459)
T1 sequence 1: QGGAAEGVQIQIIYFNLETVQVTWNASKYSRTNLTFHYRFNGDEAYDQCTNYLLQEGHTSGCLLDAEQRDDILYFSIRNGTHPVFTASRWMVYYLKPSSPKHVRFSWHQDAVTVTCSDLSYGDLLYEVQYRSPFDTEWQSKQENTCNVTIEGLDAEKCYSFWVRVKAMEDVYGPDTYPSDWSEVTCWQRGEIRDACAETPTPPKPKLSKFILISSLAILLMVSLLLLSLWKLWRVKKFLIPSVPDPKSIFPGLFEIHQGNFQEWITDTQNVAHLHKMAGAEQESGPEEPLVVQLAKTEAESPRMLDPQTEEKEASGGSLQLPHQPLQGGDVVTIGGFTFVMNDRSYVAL
T1 sequence 2: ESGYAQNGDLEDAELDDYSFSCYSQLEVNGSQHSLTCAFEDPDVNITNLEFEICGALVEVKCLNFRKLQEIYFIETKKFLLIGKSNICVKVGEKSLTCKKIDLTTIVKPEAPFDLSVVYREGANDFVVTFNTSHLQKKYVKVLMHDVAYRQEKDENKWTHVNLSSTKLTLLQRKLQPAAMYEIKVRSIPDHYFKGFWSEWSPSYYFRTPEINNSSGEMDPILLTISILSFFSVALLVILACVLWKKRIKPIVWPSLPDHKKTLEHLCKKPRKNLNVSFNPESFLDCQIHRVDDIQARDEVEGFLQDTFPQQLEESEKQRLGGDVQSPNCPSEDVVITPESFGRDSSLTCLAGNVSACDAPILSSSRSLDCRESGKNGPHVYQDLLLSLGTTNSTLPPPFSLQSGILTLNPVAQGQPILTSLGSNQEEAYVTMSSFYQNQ
Assay: cell ELISA: rhTSLP-His serially diluted from 1 μg/ml on hTSLPR/hIL-7Rα-293T/17 cells, anti-His-HRP, OD450

binding result: binds
B1: 包含有His标签的重组人源TSLP蛋白(rhTSLP-His) (ligand)
chain: not shown
notes: also called rhTSLP-His重组蛋白; rhTSLP-His蛋白
